# The supplement of paper PMC9135407
# Values joined by “and” are separate entries in the source; they are usually repeats but may differ in a detail not shown here. Identical values can stand only once. Counter-ions that a name gives are not always drawn. The campaign covered roughly 5,800 compounds. About 620 (11%) showed activity.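 The calls were made as follows: active = score above a cut-off or among the top three wells of a plate; in these data no inactive exceeds 0.85.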 The entries are a selection whose mix differs from that of the whole data set.
# System: primary human hepatic stellate cells (donor 1)
# Assay: scaled lipid accumulation score (0 = DMSO-like, 1 = nortriptyline-like); higher = stronger HSC inactivation (lipid re-accumulation), active = hit call of the paper
# Settings: 48 h
# [1] = library stock concentration: 10 mM
# [2] = library stock concentration: 3.33 mM
# [3] = library stock concentration: 8.7 mM
# [4] = library stock concentration: 1 mM
# [5] = library stock concentration: 6.1 mM
# [6] = library stock concentration: 4.9 mM
smiles,measurement,setting,value
O=c1c2ccccc2nc2n1CCc1c-2[nH]c2ccccc12 [Rutaecarpine],scaled lipid accumulation score,[1],active: 0.975
C[N+](C)(C)CC(O)CC(=O)[O-] (racemic) [DL-Carnitine HCl],scaled lipid accumulation score,[2],inactive: ≤ 0
same,scaled lipid accumulation score,[1],inactive: ≤ 0
CC(C)C(=O)c1c(C(C)C)nn2ccccc12 [Ibudilast],scaled lipid accumulation score,[3],inactive: ≤ -0.006
same,scaled lipid accumulation score,[1],inactive: ≤ -0.07 and inactive: ≤ -0.006
"Nc1ncnc2c1ncn2[C@@H]1O[C@@H]2COP(=O)(O)O[C@H]2[C@H]1O [Adenosine 3',5'-cyclic monophosphate]",scaled lipid accumulation score,[1],inactive: 0.281
C[N+](C)(C)C[C@H](O)CC(=O)[O-] [Levocarnitine],scaled lipid accumulation score,library stock concentration: 12.4 mM,inactive: ≤ 0
"CCCCCC#CCC#CCC#CCCCCCCC(=O)O [8,11,14-Eicosatriynoic Acid]",scaled lipid accumulation score,[4],inactive: ≤ 0
Cn1cnc(=N)c2[nH]cnc21 [3-Methyladenine],scaled lipid accumulation score,[2],inactive: ≤ 0
same,scaled lipid accumulation score,[1],inactive: ≤ 0
C=CC[N+]1([C@H]2C[C@H]3[C@@H]4CC[C@H]5C[C@H](O)[C@@H](N6CCOCC6)C[C@]5(C)[C@H]4CC[C@]3(C)[C@H]2OC(C)=O)CCCC1 [Rocuronium Bromide],scaled lipid accumulation score,[2],inactive: ≤ 0
same,scaled lipid accumulation score,[1],inactive: ≤ 0
CCCCCC=CCC=CCCCCCCCC(=O)OC(COC(=O)CCCCCCCCCCCCCCC)COP(=O)(O)OCCN (stereo not drawn) [1-Palmitoyl-2-linoleoyl PE],scaled lipid accumulation score,[4],inactive: 0.006
Cc1ccc(C(=O)Cn2c3c(sc2=N)CCCC3)cc1 [Pifithrin-.alpha.],scaled lipid accumulation score,[4],inactive: ≤ 0
CC(C)(C)NC(=O)[C@H]1CC[C@H]2[C@@H]3CC[C@H]4NC(=O)C=C[C@]4(C)[C@H]3CC[C@]12C,scaled lipid accumulation score,[1],inactive: ≤ 0
CC(C)(C)NC(=O)[C@H]1CC[C@H]2[C@@H]3CC[C@H]4NC(=O)C=C[C@]4(C)[C@H]3CC[C@]12C [Finasteride],scaled lipid accumulation score,,inactive: ≤ 0
same,scaled lipid accumulation score,[2],inactive: 0.033
same,scaled lipid accumulation score,library stock concentration: 5.4 mM,inactive: ≤ 0 and inactive: 0.005
same,scaled lipid accumulation score,[1],inactive: ≤ 0
Cc1ccc(C(=O)N(CCCN)[C@@H](c2oc3cc(Cl)ccc3c(=O)c2Cc2ccccc2)C(C)C)cc1,scaled lipid accumulation score,[2],inactive: 0.419
same,scaled lipid accumulation score,[1],inactive: 0.328
Nc1nc(N)c2nc(-c3ccccc3)c(N)nc2n1 [Triamterene],scaled lipid accumulation score,,inactive: ≤ 0
same,scaled lipid accumulation score,[2],inactive: ≤ 0
same,scaled lipid accumulation score,library stock concentration: 7.9 mM,inactive: ≤ 0
same,scaled lipid accumulation score,[1],inactive: ≤ -0.001 and inactive: ≤ 0 and inactive: 0.055
C=C1CC[C@H](O)C/C1=C/C=C1\CCC[C@]2(C)[C@@H]([C@H](C)/C=C/[C@H](C)C(C)C)CC[C@@H]12 [Ergocalciferol],scaled lipid accumulation score,library stock concentration: 5 mM,inactive: 0.006
same,scaled lipid accumulation score,[1],inactive: ≤ 0
C=C1CC[C@H](O)C/C1=C/C=C1\CCC[C@]2(C)[C@@H]([C@H](C)/C=C/[C@H](C)C(C)C)CC[C@@H]12 [Calciferol],scaled lipid accumulation score,,inactive: 0.214
C=C1CC[C@H](O)C/C1=C/C=C1\CCC[C@]2(C)[C@@H]([C@H](C)/C=C/[C@H](C)C(C)C)CC[C@@H]12 [Vitamin D2],scaled lipid accumulation score,[2],inactive: ≤ 0
same,scaled lipid accumulation score,[1],inactive: 0.681
CCCCOc1ccc(C(=O)CCN2CCCCC2)cc1 [Dyclonine hydrochloride],scaled lipid accumulation score,,inactive: 0.064
same,scaled lipid accumulation score,[5],inactive: 0.028
same,scaled lipid accumulation score,[1],inactive: ≤ 0
CCCCOc1ccc(C(=O)CCN2CCCCC2)cc1 [Dyclonine HCl],scaled lipid accumulation score,[2],inactive: ≤ 0
same,scaled lipid accumulation score,[1],inactive: ≤ 0
"CCCCCC(=O)CC[C@H]1[C@H](O)CC(=O)[C@@H]1CCCCCCC(=O)O [13,14-dihydro-15-keto Prostaglandin E1]",scaled lipid accumulation score,[4],inactive: ≤ 0
COc1ccc(-c2cc3nccn3c(Nc3ncccc3C(N)=O)n2)cc1OC,scaled lipid accumulation score,library stock concentration: 80 uM,inactive: 0.088
same,scaled lipid accumulation score,library stock concentration: 400 uM,inactive: ≤ -0.009
same,scaled lipid accumulation score,library stock concentration: 2 mM,inactive: 0.133
same,scaled lipid accumulation score,[1],inactive: 0.349
CC[C@H](C)C(=O)O[C@H]1C[C@H](O)C=C2C=C[C@H](C)[C@H](CC[C@@H]3C[C@@H](O)CC(=O)O3)[C@H]21 [Pravastatin lactone],scaled lipid accumulation score,[6],inactive: ≤ 0
COc1ccc(CCC(=O)Nc2nc3ccc(Cl)cc3s2)cc1OC,scaled lipid accumulation score,[2],inactive: ≤ -0.009
same,scaled lipid accumulation score,[1],inactive: 0.079
Cc1cc2c(C(=O)NCC(C)c3ccccc3)c(O)c(O)cc2c(O)c1-c1c(C)cc2c(C(=O)NCC(C)c3ccccc3)c(O)c(O)cc2c1O (stereo not drawn) [Sabutoclax],scaled lipid accumulation score,[2],inactive: 0.768
same,scaled lipid accumulation score,[1],inactive: 0.582
C=C1C(=O)O[C@H]2[C@H]1CC/C(C)=C/CC[C@@]1(C)O[C@@H]21 [(-)-Parthenolide],scaled lipid accumulation score,[2],inactive: 0.099
same,scaled lipid accumulation score,[1],inactive: 0.534
C=C1C(=O)O[C@H]2[C@H]1CC/C(C)=C/CC[C@@]1(C)O[C@@H]21 [Parthenolide],scaled lipid accumulation score,,inactive: 0.539
same,scaled lipid accumulation score,[1],inactive: 0.317 and inactive: 0.269
same,scaled lipid accumulation score,library stock concentration: 20.1 mM,inactive: 0.417
O=C(O)COc1ccc(C(=O)c2cccs2)c(Cl)c1Cl [Tienilic Acid],scaled lipid accumulation score,[4],inactive: ≤ 0
Cn1nnc2c(C(N)=O)ncn2c1=O,scaled lipid accumulation score,[1],inactive: ≤ 0
Cn1nnc2c(C(N)=O)ncn2c1=O [Temozolomide],scaled lipid accumulation score,[2],inactive: ≤ 0
same,scaled lipid accumulation score,[1],inactive: ≤ 0 and inactive: 0.013
CC(C)[C@@H]1NC(=O)[C@H](Cc2ccccc2)NC(=O)[C@@H](CC(=O)O)NC(=O)CNC(=O)[C@H](CCCN=C(N)N)NC1=O [Cyclo [Arg-Gly-Asp-D-Phe-Val]],scaled lipid accumulation score,[3],inactive: ≤ -0.003
CN1[C@@H]2CC[C@H]1C[C@@H](OC(=O)C(O)c1ccccc1)C2 (mixture of isomers) [DL-Homatropine hydrobromide],scaled lipid accumulation score,[1],inactive: 0.242
"CN1[C@@H]2CC[C@H]1C[C@@H](OC(=O)C(O)c1ccccc1)C2 (mixture of isomers) [Homatropine hydrobromide (R,S)]",scaled lipid accumulation score,,inactive: 0.043
CC(C)(C)CC(C)(C)c1ccc(OCCOCC[N+](C)(C)Cc2ccccc2)cc1 [Benzethonium Chloride],scaled lipid accumulation score,[2],inactive: ≤ 0
same,scaled lipid accumulation score,[1],inactive: 0.541
CC(C)(C)CC(C)(C)c1ccc(OCCOCC[N+](C)(C)Cc2ccccc2)cc1 [Benzethonium chloride],scaled lipid accumulation score,,inactive: 0.399
same,scaled lipid accumulation score,library stock concentration: 4.5 mM,inactive: ≤ -0.001
same,scaled lipid accumulation score,[1],inactive: 0.191
COc1ccc(CCC(=O)c2c(O)cc(O[C@@H]3O[C@H](CO)[C@@H](O)[C@H](O)[C@H]3O[C@@H]3O[C@@H](C)[C@H](O)[C@@H](O)[C@H]3O)cc2O)cc1O [Neohesperidin dihydrochalcone],scaled lipid accumulation score,[1],inactive: ≤ 0
NS(=O)(=O)c1nn2cc(-c3ccccc3)nc2s1,scaled lipid accumulation score,[1],inactive: 0.481
Cl.OCCN1CCN(CC/C=C2/c3ccccc3Sc3ccc(Cl)cc32)CC1 [Zuclopenthixol hydrochloride],scaled lipid accumulation score,,active: 0.995
Nc1ccc(/N=N/c2ccccc2)c(N)n1 [Phenazopyridine hydrochloride],scaled lipid accumulation score,,inactive: ≤ 0
same,scaled lipid accumulation score,library stock concentration: 8 mM,inactive: ≤ -0.001
same,scaled lipid accumulation score,[1],inactive: ≤ 0
Nc1ccc(/N=N/c2ccccc2)c(N)n1 [Phenazopyridine HCl],scaled lipid accumulation score,[2],inactive: 0.027
same,scaled lipid accumulation score,[1],inactive: 0.095
C[C@H](N[C@@H](CCc1ccccc1)C(=O)O)C(=O)N1Cc2ccccc2C[C@H]1C(=O)O,scaled lipid accumulation score,[1],inactive: ≤ 0
CC1=CC(=O)C2=C(C)CC[C@@H]3[C@H](OC(=O)[C@H]3C)[C@@H]12 [Leucomisine],scaled lipid accumulation score,,inactive: ≤ 0
CN(C)CCOC(=O)C(c1ccccc1)C1(O)CCCC1 (stereo not drawn) [Cyclopentolate hydrochloride],scaled lipid accumulation score,,inactive: ≤ 0
same,scaled lipid accumulation score,[5],inactive: ≤ -0.001
same,scaled lipid accumulation score,[1],inactive: 0.177
CCC(=O)O[C@]1(C(=O)SCF)[C@H](C)C[C@H]2[C@@H]3C[C@H](F)C4=CC(=O)C=C[C@]4(C)[C@@]3(F)[C@@H](O)C[C@@]21C,scaled lipid accumulation score,[1],inactive: 0.435
CCC(=O)O[C@]1(C(=O)SCF)[C@H](C)C[C@H]2[C@@H]3C[C@H](F)C4=CC(=O)C=C[C@]4(C)[C@@]3(F)[C@@H](O)C[C@@]21C [Fluticasone propionate],scaled lipid accumulation score,,inactive: ≤ 0
same,scaled lipid accumulation score,[2],inactive: 0.758
same,scaled lipid accumulation score,[1],inactive: 0.745 and inactive: 0.513
CCOC(=O)c1ccnc(C(=O)OCC)c1,scaled lipid accumulation score,[4],inactive: ≤ 0
C[N+]1(C)CCCC1C(=O)O (stereo not drawn) [Stachydrine hydrochloride],scaled lipid accumulation score,,inactive: 0.046
Cc1c(S(=O)(=O)O)oc2c1C(=O)C(=O)c1c-2ccc2c1CCCC2(C)C [Tanshinone iia sulfonate sodium],scaled lipid accumulation score,[1],inactive: ≤ 0
CN1CCN(CCCN2c3ccccc3Sc3ccc(C(F)(F)F)cc32)CC1.Cl.Cl [Trifluoperazine dihydrochloride],scaled lipid accumulation score,[1],active: 0.914
CC(C)NC[C@H](O)COc1cccc2ccccc12.Cl,scaled lipid accumulation score,library stock concentration: 16.9 mM,active: 1.02
NCCCS(=O)(=O)O [3-aminopropanesulphonic acid],scaled lipid accumulation score,[1],inactive: ≤ 0
NCCCS(=O)(=O)O [3-Amino-1-propanesulfonic acid sodium],scaled lipid accumulation score,[1],inactive: 0.205
Nc1nc(/C(=C/CC(=O)O)C(=O)N[C@@H]2C(=O)N3C(C(=O)O)=CCS[C@H]23)cs1 [Ceftibuten],scaled lipid accumulation score,[6],inactive: ≤ 0
same,scaled lipid accumulation score,[1],inactive: ≤ -0.027
CC(C)[C@H](O)C(=O)N[C@@H](C)C(=O)N[C@@H]1C(=O)N(C)CCc2ccccc21,scaled lipid accumulation score,[2],inactive: 0.014
same,scaled lipid accumulation score,[1],inactive: 0.069
O=C(NCCCCCCNC(=O)ON=C1CCCCC1)ON=C1CCCCC1,scaled lipid accumulation score,[1],inactive: 0.062
same,scaled lipid accumulation score,library stock concentration: 12.7 mM,inactive: 0.056
C=CCN1CCc2cc(O)c(O)cc2C(c2ccccc2)C1 (stereo not drawn),scaled lipid accumulation score,[1],inactive: ≤ 0 and inactive: ≤ -0.006
CNCc1ccc(C)c(NC(=O)c2ccc(Nc3nc(-c4ccccc4)c4ccccc4n3)cc2)c1,scaled lipid accumulation score,[1],inactive: 0.17
Nc1ccc(C(=O)O)c(O)c1 [Aminosalicylate sodium],scaled lipid accumulation score,[1],inactive: ≤ 0
Nc1ccc(C(=O)O)c(O)c1 [4-aminosalicylic acid],scaled lipid accumulation score,library stock concentration: 13.1 mM,inactive: ≤ 0
Nc1ccc(C(=O)O)c(O)c1 [Sodium 4-Aminosalicylate],scaled lipid accumulation score,[2],inactive: ≤ 0
same,scaled lipid accumulation score,[1],inactive: ≤ -0.001
